In PubChem BioAssay (NCI):
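Test compounds were applied to cells in 96-well plates for 48 hours at 5 doses. At the GI50, growth is halved. Definition used: TGI = concentration required for complete inhibition of growth.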 Numbered stars: 1 amine (or outer) side, 2 acyl side, 3 side chain; on linkers, the order of the positions; unused ones are H or OH. Bridge positions count the residues as written; N and C are the ends. Square brackets hold non-standard residues; d marks the D form. Peptide text beside a SMILES is read from it. * marks the point of attachment. ξ: configuration not given here. X30 = CCC(C)C(N[*:1])C(O)CC(=O)O[C@H](C(=O)C(C)C(=O)[*:2])C(C)C; NMeY = CN[C@@H](Cc1ccc(O)cc1)C(=O)O; ξNMeL = CNC(CC(C)C)C(=O)O; Cbz = O=C(OCc1ccccc1)*; Boc = CC(C)(C)OC(=O)*; Aib = CC(C)(N)C(=O)O; ξT = CC(O)C(N)C(=O)O; OBn = c1ccc(CO*)cc1; OtBu = CC(C)(C)O*; βAla = NCCC(=O)O

Tested on: NCI-H322M lung
Test: inhibition of tumour cell growth, NCI panel, 48 h

SMILES	TGI [µM]	GI50 [µM]
CN1C2CC(=O)CC1[C@@H]1OC(c3ccccc3)O[C@H]21 (stereo not given in full)	> 100	
Cc1nc(N)sc1C(=O)/C=C/c1ccc(/C=C/C(=O)c2sc(NC(=O)CCCCCCCCC(=O)Nc3nc(C)c(C(=O)/C=C/c4ccc(/C=C/C(=O)c5sc(N)nc5C)cc4)s3)nc2C)cc1	> 100	
O=C1c2cc(Br)ccc2-c2c1c1ccc([N+](=O)[O-])cc1c(=O)n2CCCCl	14.8	0.513
COc1cc(OC2OC(C)C(O)C(O)C2O)cc2oc(-c3ccc(O)cc3)c(CC=C(C)C)c(=O)c12 (stereo not given)	47.6	16.6
CC(C)(C)N1Cc2ccccc2/C(=C/Sc2ccccc2)C1=O	30.7	
N#Cc1c2c(c(N3CCOCC3)n3c1nc1ccccc13)CCCC2	33.9	
O=C(Nc1cccc(-c2cn3ccccc3n2)c1)c1ccncc1	> 100	
CC1CC(c2ccccc2)=Nc2ccccc2S1(=O)=O (stereo not given)	23.3	
COC1/C=C/C(C)C(C(C)C(OC)C(C)CCC(=O)C(C)C(CCC(=O)O)OC)OC(=O)/C=C/C=C(\C)CC(OC)CC2=CC(=O)O[C@@H](C(C)C(OC)CC(OC)/C=C/C(C)C(OC)C1)[C@H]2O (stereo not given in full)	> 5	
CC1=CSC2=NC(c3ccc(Cl)c(Cl)c3)=CC(c3ccc(Cl)cc3)N12 (stereo not given)	> 100	> 100
Cc1cc2nc3c(C(OC4OC(CO)C(O)C(O)C4O)C(O)CO)nn(-c4ccccc4)c3nc2cc1C (stereo not given)	> 100	
CCCCNc1nc(NC(C)(C)C)nc(NC(C)(C)C)n1	> 100	62.7
Clc1nc(Oc2ccccc2)nc(-c2cn(-c3ccccc3)c3ccccc23)n1	48.1	18.8
CCCCN(c1ccccc1)c1ncnc2c1cnn2C	> 100	
O=[As](O)(O)c1cc(N=Nc2ccc(-c3ccc(N=Nc4cc([As](=O)(O)O)c(O)cc4O)cc3)cc2)c(O)cc1O	> 100	
COS(=O)c1cc(Cl)cc(Cl)c1O (stereo not given)	> 100	
CC(=O)N/C(=C\c1ccc(/C=C(\NC(C)=O)c2nc3ccc(Cl)cc3[nH]2)cc1)c1nc2ccccc2[nH]1	> 100	
Cc1ccc(S(=O)(=O)N2CCN(CCN(C)CCN3CCN(S(=O)(=O)c4ccc(C)cc4)CC3)CC2)cc1	46.8	
O=C(NCCNCCO)N/N=C/c1ccc(Cl)cc1	> 100	
COc1cc(C2C3=C(COC3=O)OC(C)(C)Oc3cc4c(cc32)OCO4)cc(OC)c1OC (stereo not given)	> 100	
COc1cc(-c2nc3ccc(C)cc3[nH]2)ccc1OCC(=O)N=Nc1c(O)[nH]c2ccccc12	3.31	1.67
COc1cc(-c2cnn(C)c2)ccc1Nc1ncc2ccnc(N[C@@H](C)C(C)(C)C)c2n1	> 100	> 100
O=C(Nc1ccc(Cl)cc1)Nc1ccc(Cl)c(Cl)c1	> 100	4.53
COc1cc2c(cc1C)NC(=O)/C2=C\c1cc(OC)c(OC)c(OC)c1	> 100	> 100

SMILES	TGI [µM]	GI50 [µM]
CC(C)n1c(=O)n(-c2ccccc2)n(C(C)(C)C)c1=O	> 100	
Cc1ccc(O)c(C2=NNC(c3cccc(Br)c3)C2)c1 (stereo not given)	> 100	
C[CH2][Sn]1([CH2]C)[O]C(=O)[O][Sn]([CH2]C)([CH2]C)[O]1	> 86.2	32.2
CC(=O)O[C@H]1C(N(C)C(=O)c2ccccc2)CC[C@]2(C)C3CC[C@@]4(C)C(CC(O)[C@@H]4C(C)N(C)C)[C@@H]3CCC12 (stereo not given in full)	> 100	
CCN(CC)CCn1c2c3ccccc3ccc2c2oc(=O)c3ccccc3c21	> 100	
CCN(CC)CCC1CC/C(=C\c2ccc(OC)cc2)C1=O (stereo not given)	> 100	
NC(=O)CC(Nc1ncc2c(n1)-c1ccccc1OC2)C(=O)O (stereo not given)	> 100	
O=C1OS2(OCc3cccc4cccc2c34)c2ccccc21 (stereo not given)	> 100	
C=C1C[C@]23C[C@@]1(O)CC[C@H]2[C@@]12C=C[C@H](O)[C@@](C)(C(=O)O1)[C@H]2[C@@H]3C(=O)O	> 100	
O=C(O)c1ccc(Nc2nc3cc(C(F)(F)F)ccc3nc2C(=O)O)cc1	> 100	
CSc1nncc(-c2cc3c(c(SC)n2)CCC3)n1	> 100	
CC1=CC[C@@H]2CC[C@]3(C)[C@H](CC[C@@H]4[C@@]5(C)CCCNC(C)(C)[C@@H]5CC[C@]43C)[C@H]2[C@@H]1C	3.07	1.68
O=C(O)c1ccccc1/C=N\NC1=NCCCCN1	> 100	
CN1CCN(CCSC2Cc3cc(Cl)ccc3Sc3ccccc32)CC1 (stereo not given)	23.6	
CSCCC(NC(=O)OC(C)(C)C)C(=O)NCCNc1ccc(NCCNC(=O)C(CCSC)NC(=O)OC(C)(C)C)c2c1C(=O)c1ccccc1C2=O (stereo not given)	32.5	
CC(=O)O/N=C/c1ncccc1CO	> 100	
c1cnc2c(c1)-n1cccc1C1(CCSCC1)NN2	> 100	
O=C1C=CC(=O)c2ncccc21	23.2	
CCOC(=O)CCC(=O)C1c2cccc(O)c2C(=O)c2c(O)cccc21	3.63	
CCOC(=O)[C@@H](C)C[C@H](Cc1ccccc1)NC(=O)c1csc([C@@H](C[C@H](C(C)C)N(C)C(=O)[C@@H](NC(=O)[C@H]2C[C@H](O[Si](C)(C)C(C)(C)C)CCN2C)C(C)C)OC(C)=O)n1	> 8.33	0.318
CC[N+](CC)=c1ccc2nc3c(cc(N)c4ccccc43)oc-2c1	1.03	0.277
C=CCn1c(C)nc2cc(Nc3nc(Nc4ccc5nc(C)n(CC=C)c5c4)c4ccccc4n3)ccc21	2.04	0.727
COC(=O)CCC/C=C\C[C@H]1C=CC(=O)/C1=C/C[C@@H](O)CCc1cccc(C(F)(F)F)c1	17.9	5.17
N#CC1=CNc2sccc2S1(=O)=O	> 100	

SMILES	TGI [µM]	GI50 [µM]
O=C1NC(N/N=C\c2ccccc2)=N/C1=C/c1ccc(Cl)cc1	> 100	
O=c1cc(-c2ccccc2)[nH]c2cc(Cl)cc(Cl)c12	> 100	
Nc1ccc(C(=O)N/C(=C\C=C\c2ccco2)c2nc3[nH]c(=S)[nH]c(=O)c3[nH]2)cc1	> 100	
COc1ccc2c(c1)C(=O)CC(N)C2 (stereo not given)	> 100	
O=c1cc(-c2ccccc2)[nH]c2cccc(S)c12	> 100	
CCCCSc1n/c(=C\c2ccc(N(C)C)cc2)c2nnnn12	> 100	
COC(=O)c1c(-c2ccccc2)cc2c3cc(-c4ccccc4)c(C(=O)OC)n3c3ccccc3n12	> 100	
CC(C)(C)OC(=O)CC(NC(=O)OC(C)(C)C)C(=O)NC(CCCCNC(=O)OCc1ccccc1)C(=O)NC(C)(C)C(=O)NCCC(=O)OCc1ccccc1 (stereo not given) (Boc-D(OtBu)K(Cbz)[Aib][βAla]-OBn; configuration not given here)	> 100	
CCN(CC)CCCNc1ccc2nnn3c4ccc(O)cc4c(=O)c1c23	21.5	
O=C1C(Br)=C[C@H]2C3C=CC(Br)(C3=O)[C@@H]12 (stereo not given in full)	31	
NC(N)=N/N=C/c1nc2sccn2c1[N+](=O)[O-]	59.2	
CCOC(=O)c1cn(-c2ccc(Cl)cc2)c(=O)n2c1nc1ccccc12	> 100	
N#CCc1nc(C#N)c(N)o1	> 100	
CC(=O)NC1=N/C(=C/c2cc([N+](=O)[O-])ccc2O)CN1C	> 100	
Cc1cc2nc3c(=O)n(C)c(=O)nc-3n(-c3ccc(Cl)cc3)c2cc1C	47.3	
COc1ccc2c(c1)sc1nc(-c3ccccc3)c(-c3ccsc3)n12	> 100	> 100
COc1ccc(OC)c2cc(Cc3ccc(N(C)C)cc3)c(=O)c(Cc3ccc(N(C)C)cc3)cc12	> 100	
CC#CC(O)(C(=O)OC1CCCN(C)C1)C1=CC=CCC1 (stereo not given)	> 100	
NC(=O)COc1ccccc1	> 100	
O=C(O)C1CCc2ccc3ccccc3c2C1c1cccc2ccccc12 (stereo not given)	32.3	
CN1CCN(Cc2ccc(NC(=O)c3cncc(C#Cc4cnc(N)c5ccc(F)cc45)c3)cc2C(F)(F)F)CC1	5.33	1.4
Nc1nc2c(ncn2C2C=CC(CO)O2)c(=O)[nH]1 (stereo not given)	> 100	
CCC(C)C1NC(=O)C(NC(=O)C(CC(C)C)N(C)C(=O)[C@@H]2CCCN2)C(C)OC(=O)[C@H](Cc2ccc(OC)cc2)N(C)C(=O)[C@@H]2CCCN2C(=O)[C@H](CC(C)C)NC(=O)C(C)C(=O)[C@H](C(C)C)OC(=O)CC1O (stereo not given in full) (H-P[ξNMeL][ξT][X30]LP[NMeY](Me); ester 3-C)	0.0101	
CC(=O)CC1CCC(=O)CCC(=O)OC(CC(C)=O)CCC(=O)CCC(=O)O1 (stereo not given)	> 100	

SMILES	TGI [µM]	GI50 [µM]
CC[N+](C)(CC)CCN1C(=O)c2ccccc2S1(=O)=O	> 100	
NC(=O)c1c[se]c(C2OC(CO)C(O)C2O)n1 (stereo not given)	> 100	
CC(=O)OCC1OC(n2c(-c3ccccc3)cc(-c3ccco3)c(C#N)c2=O)C(OC(C)=O)C(OC(C)=O)C1OC(C)=O (stereo not given)	> 100	
CSC(=NC1=NC(C(F)(F)F)(C(F)(F)F)N=C(c2ccccc2)O1)SC	> 100	
COc1ccc(NC(=O)C2C(=O)N(c3ccc(OC)cc3)C(=O)/C2=N/O)cc1 (stereo not given)	62.7	
Cc1cc(S(=O)(=O)Nc2nc(N)nc(N3N=CCC3C)n2)c(S)cc1Cl (stereo not given)	> 10	
CCC(=O)c1cn(C)c(=O)c2ccccc12	> 100	
CC1=C2C(O)C(C(C)CO)C(O)CC2(C)C(O)CC1 (stereo not given)	> 100	
CC(C)c1ccc(Cc2cnc(NC(=O)c3cc(Br)cs3)s2)cc1	> 100	7.17
CCCC(=O)c1c(NOC2OC(COC(C)=O)C(OC(C)=O)C(OC(C)=O)C2OC(C)=O)nc(OC)n(C)c1=O (stereo not given)	> 100	
COC(=O)c1cncc2c1CC1C3(C(=O)OC)C=NC(C4C(CO)=CCC43)C21C (stereo not given)	> 100	
CCOc1ccccc1NC(=O)/C=C1\NC(=O)CS1	> 100	
O=C(C(O)c1cn(Cc2ccccc2)c2ccccc12)N1CCCCC1 (stereo not given)	> 100	
COC1=CC23C=CC1[C@@H](c1ccccc1)C2=C(C)C(=O)N3C(=O)NC1CCCCC1 (stereo not given in full)	79.2	
CCN(CC)CCCCC1CCN(CC(=O)N2CC(C)C(=O)Nc3ccccc32)CC1 (stereo not given)	> 100	
CC(C)=CC(C(O)c1ccccc1)S(=O)(=O)c1nccn1C (stereo not given)	> 100	
O=C(NNC(=S)Nc1ccccc1)c1csc(NC(=S)NC2CCCCC2)n1	> 100	
Oc1ccc(Br)cc1Sc1cc(Br)ccc1O	32.4	16.7
Cc1cc2c(CC(=O)O)[nH]nc2c(C(=O)O)c1C	> 100	
COc1ccc(-c2c(C#N)c(-c3ccccc3)n(NS(=O)(=O)c3ccccc3)c(=O)c2C#N)cc1	> 100	
Cc1cc(S(=O)(=O)Nc2nnc3cc(C(F)(F)F)cc(C)n23)c(S)cc1Cl	> 100	
O=[N+]([O-])c1c(/C=N/Nc2ccccc2)oc(-c2ccc3c(c2)OCO3)c1-c1ccc2c(c1)OCO2	> 100	
O=[N+]([O-])c1ccc2[nH]cc(-c3c4ccsc4cc4[nH]c5ccc([N+](=O)[O-])cc5c34)c2c1	6.07	1.34
